Experimental data published in the supplement of paper PMC8728848.
This is one part of the list.

Assays:
Test in all cases: glycan array binding signal (z-score within array); higher = stronger binding
Settings in all cases: glycan notation: IUPAC condensed, linker removed
[1] = target: Gal(b1-4)GlcNAc(b1-2)Man(a1-6)[Man(a1-3)]Man(b1-4)GlcNAc(b1-4)GlcNAc
Outline: (§1)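 The binding signal is a Z-score computed within each array and averaged over linkers. Arrays of the same protein sequence at different concentrations or buffers were also averaged together. Data originate from 3228 arrays in the Consortium for Functional Glycomics database, kept only where the protein sequence was available.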

[2] = target: Gal(b1-4)GlcNAc(b1-2)[Gal(b1-4)GlcNAc(b1-4)]Man(a1-3)[Gal(b1-4)GlcNAc(b1-2)Man(a1-6)]Man(b1-4)GlcNAc(b1-4)GlcNAc
Outline: as §1

[3] = target: Gal(b1-4)GlcNAc(b1-2)[Gal(b1-4)GlcNAc(b1-4)]Man(a1-3)[Gal(b1-4)GlcNAc(b1-2)[Gal(b1-4)GlcNAc(b1-6)]Man(a1-6)]Man(b1-4)GlcNAc(b1-4)GlcNAc
Outline: as §1

[4] = target: Gal(b1-4)GlcNAc(b1-2)[Gal(b1-4)GlcNAc(b1-4)]Man(a1-3)[GlcNAc(b1-4)][Gal(b1-4)GlcNAc(b1-2)Man(a1-6)]Man(b1-4)GlcNAc(b1-4)GlcNAc
Outline: as §1

[5] = target: Gal(b1-4)GlcNAc(b1-2)[Gal(b1-4)GlcNAc(b1-4)]Man(a1-3)[GlcNAc(b1-4)][Gal(b1-4)GlcNAc(b1-2)[Gal(b1-4)GlcNAc(b1-6)]Man(a1-6)]Man(b1-4)GlcNAc(b1-4)GlcNAc
Outline: as §1

[6] = target: Gal(b1-4)GlcNAc(b1-2)[Gal(b1-4)GlcNAc(b1-6)]Man(a1-6)[Gal(b1-4)GlcNAc(b1-2)Man(a1-3)]Man(b1-4)GlcNAc(b1-4)GlcNAc
Outline: as §1

[7] = target: Gal(b1-4)GlcNAc(b1-2)[Gal(b1-4)GlcNAc(b1-6)]Man(a1-6)[Gal(b1-4)GlcNAc(b1-2)Man(a1-3)]Man(b1-4)GlcNAc(b1-4)[Fuc(a1-6)]GlcNAc
Outline: as §1

[8] = target: Gal(b1-4)GlcNAc(b1-2)[Gal(b1-4)GlcNAc(b1-6)]Man(a1-6)[GlcNAc(b1-4)][Gal(b1-4)GlcNAc(b1-2)Man(a1-3)]Man(b1-4)GlcNAc(b1-4)GlcNAc
Outline: as §1

[9] = target: Gal(b1-4)GlcNAc(b1-2)[Gal(b1-4)GlcNAc(b1-6)]Man(a1-6)[GlcNAc(b1-4)][Gal(b1-4)GlcNAc(b1-2)[Gal(b1-4)GlcNAc(b1-4)]Man(a1-3)]Man(b1-4)GlcNAc(b1-4)[Fuc(a1-6)]GlcNAc
Outline: as §1

[10] = target: Gal(b1-4)GlcNAc(b1-3)Gal(b1-3)GalNAc
Outline: as §1

[11] = target: Gal(b1-4)GlcNAc(b1-3)Gal(b1-3)GlcNAc
Outline: as §1

[12] = target: Gal(b1-4)GlcNAc(b1-3)Gal(b1-4)Glc
Outline: as §1

[13] = target: Gal(b1-4)GlcNAc(b1-3)Gal(b1-4)GlcNAc
Outline: as §1

[14] = target: Gal(b1-4)GlcNAc(b1-3)Gal(b1-4)GlcNAc(b1-2)Man(a1-3)[Gal(b1-4)GlcNAc(b1-3)Gal(b1-4)GlcNAc(b1-2)Man(a1-6)]Man(b1-4)GlcNAc(b1-4)GlcNAc
Outline: as §1

[15] = target: Gal(b1-4)GlcNAc(b1-3)Gal(b1-4)GlcNAc(b1-2)Man(a1-3)[Gal(b1-4)GlcNAc(b1-3)Gal(b1-4)GlcNAc(b1-2)Man(a1-6)]Man(b1-4)GlcNAc(b1-4)[Fuc(a1-6)]GlcNAc
Outline: as §1

[16] = target: Gal(b1-4)GlcNAc(b1-3)Gal(b1-4)GlcNAc(b1-2)[Gal(b1-4)GlcNAc(b1-3)Gal(b1-4)GlcNAc(b1-6)]Man(a1-6)[Gal(b1-4)GlcNAc(b1-3)Gal(b1-4)GlcNAc(b1-2)Man(a1-3)]Man(b1-4)GlcNAc(b1-4)GlcNAc
Outline: as §1

[17] = target: Gal(b1-4)GlcNAc(b1-3)Gal(b1-4)GlcNAc(b1-2)[Gal(b1-4)GlcNAc(b1-3)Gal(b1-4)GlcNAc(b1-6)]Man(a1-6)[Gal(b1-4)GlcNAc(b1-3)Gal(b1-4)GlcNAc(b1-2)Man(a1-3)]Man(b1-4)GlcNAc(b1-4)[Fuc(a1-6)]GlcNAc
Outline: as §1

[18] = target: Gal(b1-4)GlcNAc(b1-3)Gal(b1-4)GlcNAc(b1-3)Gal(b1-4)GlcNAc
Outline: as §1

[19] = target: Gal(b1-4)GlcNAc(b1-3)Gal(b1-4)GlcNAc(b1-3)Gal(b1-4)GlcNAc(b1-2)Man(a1-3)[Gal(b1-4)GlcNAc(b1-3)Gal(b1-4)GlcNAc(b1-3)Gal(b1-4)GlcNAc(b1-2)Man(a1-6)]Man(b1-4)GlcNAc(b1-4)GlcNAc
Outline: as §1

[20] = target: Gal(b1-4)GlcNAc(b1-3)Gal(b1-4)GlcNAc(b1-3)Gal(b1-4)GlcNAc(b1-2)Man(a1-3)[Gal(b1-4)GlcNAc(b1-3)Gal(b1-4)GlcNAc(b1-3)Gal(b1-4)GlcNAc(b1-2)Man(a1-6)]Man(b1-4)GlcNAc(b1-4)[Fuc(a1-6)]GlcNAc
Outline: as §1

[21] = target: Gal(b1-4)GlcNAc(b1-3)Gal(b1-4)GlcNAc(b1-3)Gal(b1-4)GlcNAc(b1-2)[Gal(b1-4)GlcNAc(b1-3)Gal(b1-4)GlcNAc(b1-3)Gal(b1-4)GlcNAc(b1-6)]Man(a1-6)[Gal(b1-4)GlcNAc(b1-3)Gal(b1-4)GlcNAc(b1-3)Gal(b1-4)GlcNAc(b1-2)Man(a1-3)]Man(b1-4)GlcNAc(b1-4)[Fuc(a1-6)]GlcNAc
Outline: as §1

[22] = target: Gal(b1-4)GlcNAc(b1-3)Gal(b1-4)GlcNAc(b1-3)Gal(b1-4)GlcNAc(b1-3)Gal(b1-4)GlcNAc(b1-2)Man(a1-3)[Gal(b1-4)GlcNAc(b1-3)Gal(b1-4)GlcNAc(b1-3)Gal(b1-4)GlcNAc(b1-3)Gal(b1-4)GlcNAc(b1-2)Man(a1-6)]Man(b1-4)GlcNAc(b1-4)GlcNAc
Outline: as §1

B1: EULS2 M2 (Oryza sativa) (protein)
chain: MVYCRANPNYAMTARNGAVVLAPANPKDEYQHWIKDMRWSTSIKDEEGYPAFALVNKATGQAIKHSLGQSHPVRLVPYNPEVMDESVLWTESRDVGNGFRCIRMVNNIYLNFDAFHGDKYHGGVRDGTDIVLWKLCEGDSQRWKIQPYYILEQKLISEEDLNSAVDHHHHHH
glycan array binding signal (z-score) [1]: 1.71 | glycan array binding signal (z-score) [2]: -0.224 | glycan array binding signal (z-score) [3]: -0.536 | glycan array binding signal (z-score) [4]: -0.154 | glycan array binding signal (z-score) [5]: -0.935 | glycan array binding signal (z-score) [6]: 0.359 | glycan array binding signal (z-score) [7]: -0.293 | glycan array binding signal (z-score) [8]: -0.212 | glycan array binding signal (z-score) [9]: -0.469 | glycan array binding signal (z-score) [10]: -0.435 | glycan array binding signal (z-score) [11]: -0.193 | glycan array binding signal (z-score) [12]: -0.445 | glycan array binding signal (z-score) [13]: 0.298 | glycan array binding signal (z-score) [14]: 0.295 | glycan array binding signal (z-score) [15]: -0.309 | glycan array binding signal (z-score) [16]: 1.3 | glycan array binding signal (z-score) [17]: 0.142 | glycan array binding signal (z-score) [18]: -0.22 | glycan array binding signal (z-score) [19]: -0.451 | glycan array binding signal (z-score) [20]: -0.152 | glycan array binding signal (z-score) [21]: -0.005 | glycan array binding signal (z-score) [22]: 0.019
